This is an account of results in the supplement of paper PMC11417369.

This is one part of the list.

In the test the test system is PfHDP1 homeodomain (GST-tagged). Nature of the test: gcPBM binding intensity (ln(normalized median fluorescence intensity)); higher = stronger DNA binding. The essentials: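 GST-tagged P. falciparum DNA-binding domains, expressed in E. coli (about 25 μg on average), were applied for 1 h to an Agilent 4 × 180k array of primer-extended double-stranded 36-bp intergenic genomic probes plus negative controls. The binding buffer was 1× PBS with 1% milk, 0.2 mg/ml BSA, 0.5% salmon testes DNA and 0.03% Triton X-100. Bound protein was detected with Alexa488 anti-GST antibody and scanned at 488 nm. Binding intensity is the highest Masliner-normalised natural-log median intensity across replicate spots of either probe orientation.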
In the case of “AAATATAATAATAATTTAAGAATCTAATATTTTATA [CACACA_negctrl_site831]”, the “gcPBM binding intensity (ln)” value came out at 5.69.

Regarding “TACTATATCGATACCAGTACAGATTTATAAATAATA [XGTACX_site7491]”, the “gcPBM binding intensity (ln)” value turned out to be 6.31.

With “ATATAACTTTTCTTAACACACAAAAAACAAAAATAA [CACACA_site2380]”, the “gcPBM binding intensity (ln)” value came to 6.91.

Consider “AAGTGTCAAAGTTACACACACAAACTTGTCATTTTT [CACACA_site837]”, for which the “gcPBM binding intensity (ln)” value stood at 6.59.

For the sequence “GGTATACATATTAAATGTACATATTTTAACAATAAG [XGTACX_site4868]”, the “gcPBM binding intensity (ln)” value came out at 6.32.

Take “ATTTTTTTTTTAAAATGTACATGAGAAATTGTATAT [XGTACX_site425]”: the “gcPBM binding intensity (ln)” value was 6.44.

In the case of “TTTCTTATATAAGTGTACTAAAATATATATATGCAA [GTGCAC_negctrl_site546]”, the “gcPBM binding intensity (ln)” value turned out to be 6.64.

Regarding “TAACATAATATAGACACACACATGTACATATGCCAA [CACACA_site1842]”, the “gcPBM binding intensity (ln)” value came out at 6.55.

In the case of “TATATTATTAATTAAGCACACATTATTTTTATAATA [CACACA_site3982]”, the “gcPBM binding intensity (ln)” value is 6.37.

Turning to “TAAAAAAATAAATATACACACATATATAAATATGTA [CACACA_site6641]”, the “gcPBM binding intensity (ln)” value was found to be 6.18.

On to “TATGAATATCTATACACACACATATATATACTCACT [CACACA_site1597]”, for which the “gcPBM binding intensity (ln)” value came to 6.82.

“CAAAGATATATAAACACACAAATATAACATATATAC [CACACA_site7395]”: the “gcPBM binding intensity (ln)” value is 6.63.

Consider “TATATTATTATATATTGTACTTTTTATATTTGCATT [XGTACX_site2978]”, for which the “gcPBM binding intensity (ln)” value is 6.43.

In the case of TACACTTGTAATTGCGTGCACGAAGGATATATATAT, the “gcPBM binding intensity (ln)” value worked out at 10.4.

As for “AAAAAAAAAAAAAGGTGTACATGCAAAATAAATTCT [XGTACX_site4592]”, the “gcPBM binding intensity (ln)” value was found to be 6.48.

“AAATAAATAAGAAACGCATGCATATATAATATATAA [TGCATGCA_site326]”: the “gcPBM binding intensity (ln)” value came out at 6.75.

As to “GTTATTTATAGACACACACACATGCATGCACATATA [CACACA_site6204]”, the “gcPBM binding intensity (ln)” value was 10.2.

Turning to “CATATATATTTGTTCACACACACACCCAAAAAAAAA [CACACA_site2476]”, the “gcPBM binding intensity (ln)” value is 6.8.

Turning to “TTTAAAATGGGACTTTGAAAAAAAAAAAAAAAAACA [TGCATGCA_negctrl_site111]”, the “gcPBM binding intensity (ln)” value is 6.1.

As for “GAAAAAGTTATAAATTGTACTAAATATTAAATATTG [XGTACX_site7890]”, the “gcPBM binding intensity (ln)” value came out at 6.24.

With “ATATATATATATATTTGTACATATATACATAAAATT [XGTACX_site359]”, the “gcPBM binding intensity (ln)” value was 8.99.

As for “CACACCCACAGACACACACACACATATATATATATA [CACACA_site363]”, the “gcPBM binding intensity (ln)” value is 9.23.

As to “TATATATATATATATTGTACATAATGTATATATGTT [XGTACX_site3448]”, the “gcPBM binding intensity (ln)” value turned out to be 9.09.

As to “TATAGGTATGTATGTACACACAAAAAATGGAATATA [CACACA_site7704]”, the “gcPBM binding intensity (ln)” value worked out at 7.2.

Regarding “CATATGTTCATCATAGCACACATATATAAATTACAA [CACACA_site9177]”, the “gcPBM binding intensity (ln)” value was 6.5.
